# Laboratory results published in publication PMC4316160.
# Amino acid sequences for entries named in this document (tags omitted). A change or cut given only in a name is not applied to a line headed by its entry.
# UniProt P62821: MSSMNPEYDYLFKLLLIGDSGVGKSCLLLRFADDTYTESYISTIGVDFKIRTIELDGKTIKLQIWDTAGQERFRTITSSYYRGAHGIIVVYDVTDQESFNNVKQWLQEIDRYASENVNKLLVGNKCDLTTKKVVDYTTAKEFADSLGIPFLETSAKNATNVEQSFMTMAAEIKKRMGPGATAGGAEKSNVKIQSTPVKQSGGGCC
# Results are given in words; binding and its absence hold for the method and conditions named. In cells and extracts the contact can be indirect. Some results given as binding are weak or reduced against the parent protein; the word gives no strength. Where a sequence is shown, tags or fusion partners need not be part of it.
# Biological target: T1, T7-GST-SKIP-RUN (human) (UniProt Q8IWE5)
# T1 sequence: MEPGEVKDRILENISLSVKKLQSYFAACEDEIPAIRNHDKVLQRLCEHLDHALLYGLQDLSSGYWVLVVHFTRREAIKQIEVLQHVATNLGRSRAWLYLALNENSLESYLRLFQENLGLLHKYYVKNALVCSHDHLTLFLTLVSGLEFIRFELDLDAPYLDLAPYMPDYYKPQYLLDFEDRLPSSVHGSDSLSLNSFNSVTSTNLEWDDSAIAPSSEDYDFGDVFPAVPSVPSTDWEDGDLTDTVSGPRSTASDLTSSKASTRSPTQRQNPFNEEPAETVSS
# Experiment: pull-down; glutathione Sepharose 4B beads coupled with T7-GST-SKIP-RUN (affinity-purified from COS-7) incubated 3 hours at 4°C with COS-7 cell lysates containing FLAG-Rab1A(Q70L) and/or an increasing amount of FLAG-Arl8b(Q75L); immunoblotting, band intensity by ImageJ; only the target purified
substance,measurement,value
FLAG-Rab1A(Q70L) (from UniProt P62821 1-205),binding,binds
